# Laboratory results as given in the supplement of paper PMC8728848.
# The other results are listed elsewhere or left out.
# B1: DC SIGN CRD (Homo sapiens), Q9NNX6 (protein)
# chain: QPCPWEWTFFQGNCYFMSNSQRNWHDSITACKEVGAQLVVIKSAEEQNFLQLQSSRSNRFTWMGLSDLNQEGTWQWVDGSPLLPSFKQYWNRGEPNNVGEEDCAEFSGNGWNDDKCNLAKFWICKKSAWSHPQFEK
# Experiments:
# Assay in all cases: glycan array binding signal (z-score within array); higher = stronger binding
# Conditions in all cases: glycan notation: IUPAC condensed, linker removed
# Fuc(a1-2)Gal = molecular target: Fuc(a1-2)Gal
# In short: (§1)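 Glycan array data were curated from 3228 arrays in the Consortium for Functional Glycomics database and kept only where the protein sequence was available. Glycan names were converted to IUPAC-condensed notation, and columns mapping to the same glycan were averaged. The binding signal is a within-array Z-score, averaged across arrays of the same protein sequence at different concentrations or buffers and across linkers. Negative Z-scores can be read as non-binding.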
# Fuc(a1-2)Gal(b1-3)GalNAc = molecular target: Fuc(a1-2)Gal(b1-3)GalNAc
# In short: as §1
# [1] = molecular target: Fuc(a1-2)Gal(b1-3)GalNAc(b1-3)Gal
# In short: as §1
# [2] = molecular target: Fuc(a1-2)Gal(b1-3)GalNAc(b1-3)Gal(a1-4)Gal(b1-4)Glc
# In short: as §1
# [3] = molecular target: Fuc(a1-2)Gal(b1-3)GalNAc(b1-3)Gal(b1-4)Glc
# In short: as §1
# [4] = molecular target: Fuc(a1-2)Gal(b1-3)GalNAc(b1-4)[Neu5Ac(a2-3)]Gal(b1-4)Glc
# In short: as §1
# [5] = molecular target: Fuc(a1-2)Gal(b1-3)[Fuc(a1-4)]GlcNAc
# In short: as §1
# Fuc(a1-2)Gal(b1-4)Glc = molecular target: Fuc(a1-2)Gal(b1-4)Glc
# In short: as §1
# Fuc(a1-2)Gal(b1-4)Glc6S = molecular target: Fuc(a1-2)Gal(b1-4)Glc6S
# In short: as §1
# Fuc(a1-2)Gal(b1-4)GlcNAc = molecular target: Fuc(a1-2)Gal(b1-4)GlcNAc
# In short: as §1
# [6] = molecular target: Fuc(a1-2)Gal(b1-4)GlcNAc(b1-3)Gal(b1-4)GlcNAc
# In short: as §1
# [7] = molecular target: Fuc(a1-2)Gal(b1-4)GlcNAc(b1-3)Gal(b1-4)GlcNAc(b1-3)Gal(b1-4)GlcNAc
# In short: as §1
# [8] = molecular target: Fuc(a1-2)Gal(b1-4)GlcNAc6S
# In short: as §1
# [9] = molecular target: Fuc(a1-2)Gal(b1-4)[Fuc(a1-3)]GalNAc(b1-3)Gal(b1-4)[Fuc(a1-3)]GlcNAc
# In short: as §1
# [10] = molecular target: Fuc(a1-2)Gal(b1-4)[Fuc(a1-3)]GalNAc(b1-3)Gal(b1-4)[Fuc(a1-3)]GlcNAc(b1-3)Gal(b1-4)[Fuc(a1-3)]GalNAc
# In short: as §1
# [11] = molecular target: Fuc(a1-2)Gal(b1-4)[Fuc(a1-3)]GlcNAc
# In short: as §1
# Fuc(a1-2)Gal6S(b1-4)Glc = molecular target: Fuc(a1-2)Gal6S(b1-4)Glc
# In short: as §1
# [12] = molecular target: Fuc(a1-2)Gal6S(b1-4)Glc6S
# In short: as §1
# [13] = molecular target: Fuc(a1-2)Gal6S(b1-4)GlcNAc
# In short: as §1
# Fuc(a1-2)GlcNAc = molecular target: Fuc(a1-2)GlcNAc
# In short: as §1
# Fuc(a1-2)[Gal(a1-3)]Gal = molecular target: Fuc(a1-2)[Gal(a1-3)]Gal
# In short: as §1
# [14] = molecular target: Fuc(a1-2)[Gal(a1-3)]Gal(b1-3)GlcNAc
# In short: as §1
# [15] = molecular target: Fuc(a1-2)[Gal(a1-3)]Gal(b1-4)Glc
# In short: as §1
# [16] = molecular target: Fuc(a1-2)[Gal(a1-3)]Gal(b1-4)GlcNAc
# In short: as §1
# [17] = molecular target: Fuc(a1-2)[Gal(a1-3)]Gal(b1-4)[Fuc(a1-3)]GlcNAc
# In short: as §1
# [18] = molecular target: Fuc(a1-2)[Gal(a1-4)]Gal(b1-4)GalNAc
# In short: as §1
# [19] = molecular target: Fuc(a1-2)[GalNAc(a1-3)]Gal
# In short: as §1
# [20] = molecular target: Fuc(a1-2)[GalNAc(a1-3)]Gal(b1-3)GlcNAc
# In short: as §1
# [21] = molecular target: Fuc(a1-2)[GalNAc(a1-3)]Gal(b1-4)Glc
# In short: as §1
# [22] = molecular target: Fuc(a1-2)[GalNAc(a1-3)]Gal(b1-4)GlcNAc
# In short: as §1
# [23] = molecular target: Fuc(a1-2)[GalNAc(a1-3)]Gal(b1-4)[Fuc(a1-3)]GlcNAc
# In short: as §1
# [24] = molecular target: Fuc(a1-2)[GalNAc(a1-4)]Gal(b1-4)GlcNAc
# In short: as §1
# Fuc(a1-3)GlcNAc = molecular target: Fuc(a1-3)GlcNAc
# In short: as §1
# [25] = molecular target: Fuc(a1-3)[Gal(b1-4)]Glc6S
# In short: as §1
# [26] = molecular target: Fuc(a1-3)[Gal(b1-4)]GlcNAc
# In short: as §1
# [27] = molecular target: Fuc(a1-3)[Gal(b1-4)]GlcNAc(b1-3)Gal(b1-3)[Fuc(a1-4)]GlcNAc
# In short: as §1
# [28] = molecular target: Fuc(a1-3)[Gal(b1-4)]GlcNAc(b1-4)Gal(b1-4)[Fuc(a1-3)]GlcNAc
# In short: as §1
# [29] = molecular target: Fuc(a1-3)[Gal(b1-4)]GlcNAc(b1-4)Gal(b1-4)[Fuc(a1-3)]GlcNAc(b1-4)Gal(b1-4)[Fuc(a1-3)]GlcNAc
# In short: as §1
# [30] = molecular target: Fuc(a1-3)[Gal(b1-4)]GlcNAc6S
# In short: as §1
# [31] = molecular target: Fuc(a1-3)[Gal3S(b1-4)]Glc
# In short: as §1
# [32] = molecular target: Fuc(a1-3)[Gal3S(b1-4)]Glc6S
# In short: as §1
# [33] = molecular target: Fuc(a1-3)[Gal3S(b1-4)]GlcNAc
# In short: as §1
# [34] = molecular target: Fuc(a1-3)[Gal3S(b1-4)]GlcNAc6S
# In short: as §1
# [35] = molecular target: Fuc(a1-3)[GalNAc(b1-4)]Gal(b1-4)GlcNAc
# In short: as §1
# Fuc(a1-4)GlcNAc = molecular target: Fuc(a1-4)GlcNAc
# In short: as §1
# Fuc(b1-3)GlcNAc = molecular target: Fuc(b1-3)GlcNAc
# In short: as §1
# Gal(a1-2)Gal = molecular target: Gal(a1-2)Gal
# In short: as §1
# Gal(a1-3)Gal = molecular target: Gal(a1-3)Gal
# In short: as §1
# Gal(a1-3)Gal(b1-3)Glc = molecular target: Gal(a1-3)Gal(b1-3)Glc
# In short: as §1
# Gal(a1-3)Gal(b1-3)GlcNAc = molecular target: Gal(a1-3)Gal(b1-3)GlcNAc
# In short: as §1
# Gal(a1-3)Gal(b1-4)GlcNAc = molecular target: Gal(a1-3)Gal(b1-4)GlcNAc
# In short: as §1
# [36] = molecular target: Gal(a1-3)Gal(b1-4)[Fuc(a1-3)]GalNAc
# In short: as §1
# Gal(a1-3)GlcNAc = molecular target: Gal(a1-3)GlcNAc
# In short: as §1
# [37] = molecular target: Gal(a1-3)[Gal(a1-4)]Gal(b1-4)GlcNAc
# In short: as §1
# Gal(a1-4)Gal(b1-4)Gal = molecular target: Gal(a1-4)Gal(b1-4)Gal
# In short: as §1
# Gal(a1-4)Gal(b1-4)GalNAc = molecular target: Gal(a1-4)Gal(b1-4)GalNAc
# In short: as §1
# Gal(a1-4)GlcNAc = molecular target: Gal(a1-4)GlcNAc
# In short: as §1
# Gal(a1-6)Glc = molecular target: Gal(a1-6)Glc
# In short: as §1
# Gal(b1-2)Gal = molecular target: Gal(b1-2)Gal
# In short: as §1
# Gal(b1-3)Gal = molecular target: Gal(b1-3)Gal
# In short: as §1
binder,measurement,setting,value
B1,glycan array binding signal (z-score),Fuc(a1-2)Gal,0.574
same,glycan array binding signal (z-score),Fuc(a1-2)Gal(b1-3)GalNAc,-0.378
same,glycan array binding signal (z-score),[1],-0.391
same,glycan array binding signal (z-score),[2],-0.37
same,glycan array binding signal (z-score),[3],-0.393
same,glycan array binding signal (z-score),[4],-0.377
same,glycan array binding signal (z-score),[5],0.926
same,glycan array binding signal (z-score),Fuc(a1-2)Gal(b1-4)Glc,-0.124
same,glycan array binding signal (z-score),Fuc(a1-2)Gal(b1-4)Glc6S,-0.36
same,glycan array binding signal (z-score),Fuc(a1-2)Gal(b1-4)GlcNAc,-0.124
same,glycan array binding signal (z-score),[6],-0.265
same,glycan array binding signal (z-score),[7],-0.35
same,glycan array binding signal (z-score),[8],-0.346
same,glycan array binding signal (z-score),[9],5.67
same,glycan array binding signal (z-score),[10],3.54
same,glycan array binding signal (z-score),[11],4.18
same,glycan array binding signal (z-score),Fuc(a1-2)Gal6S(b1-4)Glc,-0.242
same,glycan array binding signal (z-score),[12],-0.351
same,glycan array binding signal (z-score),[13],-0.212
same,glycan array binding signal (z-score),Fuc(a1-2)GlcNAc,0.652
same,glycan array binding signal (z-score),Fuc(a1-2)[Gal(a1-3)]Gal,0.666
same,glycan array binding signal (z-score),[14],-0.394
same,glycan array binding signal (z-score),[15],-0.339
same,glycan array binding signal (z-score),[16],-0.383
same,glycan array binding signal (z-score),[17],0.466
same,glycan array binding signal (z-score),[18],-0.259
same,glycan array binding signal (z-score),[19],0.028
same,glycan array binding signal (z-score),[20],-0.278
same,glycan array binding signal (z-score),[21],-0.178
same,glycan array binding signal (z-score),[22],-0.382
same,glycan array binding signal (z-score),[23],1.01
same,glycan array binding signal (z-score),[24],0.023
same,glycan array binding signal (z-score),Fuc(a1-3)GlcNAc,-0.201
same,glycan array binding signal (z-score),[25],0.201
same,glycan array binding signal (z-score),[26],1.99
same,glycan array binding signal (z-score),[27],2.33
same,glycan array binding signal (z-score),[28],2.15
same,glycan array binding signal (z-score),[29],5.8
same,glycan array binding signal (z-score),[30],0.951
same,glycan array binding signal (z-score),[31],1.1
same,glycan array binding signal (z-score),[32],0.12
same,glycan array binding signal (z-score),[33],-0.131
same,glycan array binding signal (z-score),[34],-0.123
same,glycan array binding signal (z-score),[35],1.09
same,glycan array binding signal (z-score),Fuc(a1-4)GlcNAc,0.409
same,glycan array binding signal (z-score),Fuc(b1-3)GlcNAc,1.39
same,glycan array binding signal (z-score),Gal(a1-2)Gal,-0.332
same,glycan array binding signal (z-score),Gal(a1-3)Gal,-0.356
same,glycan array binding signal (z-score),Gal(a1-3)Gal(b1-3)Glc,-0.385
same,glycan array binding signal (z-score),Gal(a1-3)Gal(b1-3)GlcNAc,-0.343
same,glycan array binding signal (z-score),Gal(a1-3)Gal(b1-4)GlcNAc,-0.249
same,glycan array binding signal (z-score),[36],0.889
same,glycan array binding signal (z-score),Gal(a1-3)GlcNAc,-0.254
same,glycan array binding signal (z-score),[37],-0.351
same,glycan array binding signal (z-score),Gal(a1-4)Gal(b1-4)Gal,-0.355
same,glycan array binding signal (z-score),Gal(a1-4)Gal(b1-4)GalNAc,-0.115
same,glycan array binding signal (z-score),Gal(a1-4)GlcNAc,-0.378
same,glycan array binding signal (z-score),Gal(a1-6)Glc,-0.271
same,glycan array binding signal (z-score),Gal(b1-2)Gal,-0.316
same,glycan array binding signal (z-score),Gal(b1-3)Gal,-0.343
